According to ChEMBL document CHEMBL4888484, “Replenishing the malaria drug discovery pipeline: Screening and hit evaluation of the MMV Hit Generation Library 1 (HGL1) against asexual blood stage Plasmodium falciparum ,using a nano luciferase reporter read-out” (2022):
Screen size: about 150,000 compounds; about 540 (0.36%) showed an effect of 50% or more. Some of the results follow.

Tested on: Plasmodium falciparum
Experiment: Primary screen in NF54 nanoGlo assay, in single point, at 2uM, 72h; a lower Z score goes with more inhibition
Format: functional, Erythrocyte
Conditions: timepoint 72 hour

| SMILES | % Inhibition | Z score |
| --- | --- | --- |
| Cc1cc([C@@H]2CCCN2S(=O)(=O)Cc2ccccc2)no1 | -4% | 0.5 |
| O=C(Cn1cccn1)c1ccc(Cl)cc1 | 5% | -0.67 |
| C=CC[C@]1(CO)CCCN(CCS(C)(=O)=O)C1 | 0% | 0.05 |
| CCOc1ccc2c(n1)CCN(C(=O)c1cc(C)nn1C)C2 | -6% | 0.86 |
| Cc1cc(NCc2ccco2)nc(C)n1 | -9% | 1.14 |
| OC[C@H]1CCCN1c1ccc(C(F)(F)F)nn1 | -13% | 2.03 |
| CCOC[C@@H](O)CN(CCN(C)C)Cc1c(-c2ccccc2)noc1N1CCCCC1 | -8% | 0.98 |
| CC1(C)C(=O)N(CC2CCCCCC2)C(=O)N1CC(N)=O | -10% | 1.69 |
| Cn1ncc(NC(=O)Cn2ccc3cc(-c4cc(F)ccc4F)ccc32)n1 | 11% | -1.41 |
| CO[C@H]1[C@H](NC(=O)C(C)C)c2ccccc2C12CCN(C(=O)COc1ccc(C)cc1)CC2 | 1% | -0.09 |
| COc1cccc(-c2nc3c(s2)CN(S(=O)(=O)c2ccc(C)c(C)c2)CC3)c1 | 4% | -0.45 |
| CCCC1(NC[C@]2(O)CCCN(Cc3cc(OC)ccc3F)C2=O)CC1 | -8% | 1.04 |
| c1ccn2cc(Cn3ccnc3-c3ccncc3)nc2c1 | -1% | 0.24 |
| O=C(c1cnc2ccsc2c1)N1CC2(CCCCC2)C1 | -15% | 2.61 |
| CC(C)CC(=O)[C@H]1CCCN(C(=O)Cn2nnnc2CN2CCCC2)C1 | 1% | -0.15 |
| Cc1ccc(Oc2nc(N3CCC(C)CC3)nc3c2CN(S(=O)(=O)c2ccccc2)CC3)cc1 | 2% | -0.32 |
| Nc1ccc(CN2CCC[C@H]2COc2ccc(Cl)cc2)nn1 | -13% | 1.79 |
| Cc1nnn(CC(=O)Nc2cc(-c3ccccn3)nn2C)n1 | -5% | 0.79 |
| Fc1ccc(NCc2c[nH]c3ccccc23)cc1 | 6% | -1 |
| CC[C@H](CO)NC(=O)N[C@H](C)c1cccc(Cl)c1 | -2% | 0.31 |
| Cc1oc(-c2ccccc2)nc1CN1CCN(S(=O)(=O)c2ccc3c(c2)CCCC3)CC1 | -9% | 1.15 |
| CC(Nc1cccc(CO)c1)C1CCOC1 (stereo not given) | -10% | 1.32 |

| SMILES | % Inhibition | Z score |
| --- | --- | --- |
| CCCn1nc(C(=O)N2CCCCCC2)c2c1CC[C@H](N1CCN(CC)CC1)C2 | 9% | -1.13 |
| CN1CCO[C@@H](CNc2ncc(F)cn2)C1 | -2% | 0.33 |
| CCCc1nc(CNc2nc3c(s2)c(C)nn3C)cs1 | 7% | -1.31 |
| CCN(C(=O)c1cnn(C)c1)[C@@H](C)c1ccncc1 | -6% | 0.93 |
| CC(=O)N[C@H]1[C@H](Oc2ccccc2Cl)O[C@@H]2COC(C)(C)O[C@H]2[C@@H]1O | -3% | 0.48 |
| CN(Cc1ccccc1)C(=O)CCC1CCN(Cc2ccc3nsnc3c2)CC1 | -1% | 0.21 |
| CCC(C)Oc1cccc(NC(C)CC(=O)NC)c1 (stereo not given) | -14% | 1.85 |
| N#C[C@@H]1COCCN1C(=O)c1ccnc(OCC(F)F)c1 | -5% | 0.62 |
| COc1ccc(CCNC(=O)c2nnn3c2CO[C@H](c2ccc(F)cc2)C3)cc1OC | 4% | -0.4 |
| c1ccc(-c2ncn(CCc3c[nH]cn3)c2-c2cccn2-c2ccccn2)cc1 | -9% | 1.7 |
| CCCN1C[C@@H]2CC[C@H]1CN(Cc1ccc(C)o1)C2 | -9% | 1.61 |
| Cc1cc(F)ccc1[C@@H]1CCCN1C(=O)Nc1ncnn1C | -12% | 1.88 |
| O=C(c1cnccn1)N1C[C@H]2CC[C@@H](C1)N(Cc1ccc3ccccc3n1)C2 | -3% | 0.48 |
| O=C(NCCc1ccccn1)[C@H]1CCCN(c2nnc3ccc(C(F)(F)F)cn23)C1 | -20% | 3.38 |
| CCC(O)CN(CC)C(C)c1cccc(O)c1 (stereo not given) | -8% | 1.01 |
| CC[C@](C)(O)CNC(=O)c1nccnc1N | -7% | 0.85 |
| CC[C@H]1CCCN(c2ncc(Br)cc2CO)C1 | 0% | -0.05 |
| CO[C@@H]1CO[C@H]2[C@@H]1OC[C@@H]2NCc1ccc(N(C)C)cc1 | 31% | -3.51 |
| CC(C)c1ccc(-n2nc(C(=O)NCc3ccc4c(c3)OCO4)c(=O)n(Cc3ccccc3)c2=O)cc1 | -12% | 1.85 |
| CCCCNC(=O)c1ccc(-c2cn[nH]c2)o1 | -1% | 0.15 |
| Cc1cccc(C)c1N[C@@H](C)C(=O)N1CCC2(CC1)CN(C)CCN2C | -8% | 1.08 |
| O=C(NCc1cc(C2CC2)ncn1)c1ccccc1Br | -8% | 1.68 |

| SMILES | % Inhibition | Z score |
| --- | --- | --- |
| Cc1nscc1C(=O)NC1CCC(Oc2ccccc2C#N)CC1 (stereo not given) | -11% | 1.5 |
| COc1ccc(CC(=O)N2CCC[C@H]2c2nc3cc(-c4ccccc4F)ccc3o2)cc1 | 1% | -0.23 |
| Cc1cccc(Cl)c1S(=O)(=O)NCc1ocnc1C | -13% | 2.37 |
| COc1nn(C)cc1NC(=O)N[C@H]1CCO[C@@H]1c1c(C)nn(C)c1C | -11% | 1.82 |
| Cc1cc(C)cc(Nc2nc(C)cc(=O)n2CC(=O)N2CCc3ccccc32)c1 | -7% | 1.02 |
| COCC(=O)N1CCC2(CC1)O[C@@H](CC(=O)NC1CCCC1)Cc1ccccc12 | -10% | 1.26 |
| CC(=O)N1CCN(Cc2cccc(NC(=O)c3ccsc3)n2)CC1 | -1% | 0.16 |
| CCn1c(C(=O)NCCC2=CCCCC2)c(N2CCCC2=O)c2cc(OC)ccc21 | -6% | 0.96 |
| CN(C)c1ccc(C(=O)N[C@H]2CCN(c3ccc(F)cc3)C2=O)cc1 | 0% | 0.04 |
| CCNC(=O)N1CCC[C@H]1c1cc(C(C)C)no1 | 8% | -1.12 |
| COc1ccc(OC)c(C2CC2C(=O)N(C)Cc2c(C)noc2C)c1 (stereo not given) | -16% | 1.68 |
| CCCc1n[nH]cc1C(=O)N1CC(=O)N(c2ccc(Cl)cc2)C[C@@H]1C | -10% | 1.42 |
| CN1CCC2(CCCN2C(=O)c2cccc(S(=O)(=O)N3CCCC3)c2)CC1 | -2% | 0.33 |
| COC(C)(C)c1cn(Cc2cnc(C)s2)nn1 | -6% | 0.97 |
| Cc1nc(C(=O)N2C[C@@H](N(C)C)CCc3cc(Br)ccc32)co1 | 2% | -0.28 |
| c1ccc(C2(c3nc([C@H]4CN5CCC[C@H]5CO4)no3)CCCO2)cc1 (stereo not given in full) | -7% | 0.87 |
| Cc1cccc(-c2ccc(CN(C(=O)Nc3ccc(C(F)(F)F)cc3)C(C)C)s2)c1 | 2% | -0.25 |
| c1coc(-c2cc(COc3ccc4c(c3)CCC4)no2)c1 | -3% | 0.3 |
| CN(C)c1ccc(C(=O)Nc2ccc3c(c2)OCCCO3)cc1 | -20% | 2.06 |
| CN(C)C(=O)c1ccc(CNC(=O)[C@@H](c2ccccc2F)N(C)C)o1 | -10% | 1.88 |
| CN(C)c1cnc(C(=O)N2CCC[C@H]2C2CCOCC2)cn1 | -3% | 0.41 |
| COc1cnccc1[C@H](C)NC(=O)c1cc(F)cc2nc(C)c(C)nc12 | 3% | -0.31 |

| SMILES | % Inhibition | Z score |
| --- | --- | --- |
| O=C(NCc1ncc(Br)cn1)[C@@H]1CCc2cccc(O)c21 | -5% | 0.84 |
| Cc1ccc(CCC(=O)NC(c2ccccc2)C(C)C(=O)O)o1 (stereo not given) | 5% | -0.67 |
| CCn1nc(C)c(-c2ccc(C(=O)N3CCCN4CCC[C@H]4C3)cc2)c1C | -12% | 1.46 |
| Cc1ccc(NC(=O)c2cccc(OCC(F)F)n2)c(O)n1 | 10% | -1.13 |
| CC(C)[C@@H](CO)NC(=O)[C@H](NC(=O)C(c1ccccc1)c1ccccc1)c1ccccc1 | -3% | 0.42 |
| CN(C)c1ccc(C(=O)N2CCCN(C3CCOCC3)CC2)cc1 | -9% | 1.25 |
| COc1ccc2c(c1)CN(C(=O)C1CCCC1)CC[C@H]1COC(=O)N21 | 3% | -0.48 |
| Cc1cscc1C(=O)N1CCN(C)Cc2ccccc21 | -15% | 3.07 |
| COC[C@@H](O)CNC(=O)Nc1cc(N(C)C)n2nc(C)cc2n1 | -5% | 0.62 |
| Cc1cccc(N(C)C(=O)c2ccc3c(=O)n4c(nc3c2)CCCCCC4)n1 | -4% | 0.67 |
| Cc1cnn(C2CCCC2)c1NC(=O)N1CCO[C@H](C(N)=O)C1 | -6% | 1.25 |
| Cc1noc([C@H]2CCN(C(=O)NCCc3ccccc3)C[C@H]2NC(=O)C2CCOCC2)n1 | -12% | 1.47 |
| O=C(c1cncc(-n2ccnn2)c1)N1CC(N2CCCC2=O)C1 | 6% | -0.92 |
| CCNC(=O)c1nn(Cc2ccccc2)c2c1C[C@@H](N1CCCC1)CC2 | -11% | 1.41 |
| Cc1nc(CC(=O)Nc2cc([C@H]3CCCOC3)nn2C)c(C)s1 | -7% | 1.07 |
| CN(CC1CCCCC1)C(=O)C1CCC1 | -8% | 0.85 |
| COc1ccc(OCc2cc(C(=O)NCc3ccncn3)n[nH]2)c(Cl)c1 | -4% | 0.49 |
| Cc1ccc2ccc(S(=O)(=O)n3ccnc3)cc2c1 | -9% | 1.64 |
| CC(=O)N1CCCN(C(=O)Cn2c(C3CC3)nc3ccccc32)CC1 | 1% | -0.21 |
